# The list shows a part of the results.
# B1: CVN (Nostoc ellipsosporum), P81180 (protein)
# chain: LGKFSQTCYNSAIQGSVLTSTCERTNGGYNTSSIDLNSVIENVDGSLKWQPSNFIETCRNTQLAGSSELAAECKTRAQQFVSTKINLDDHIANIDGTLKYE
# What was measured:
# Assay in all cases: glycan array binding signal (z-score within array); higher = stronger binding
# Settings in all cases: glycan notation: IUPAC condensed, linker removed
# [1] = biological target: Fuc(a1-2)[Gal(a1-3)]Gal(b1-4)Glc
# Outline: (§1)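 The binding signal is a Z-score computed within each array. Data were drawn from 3228 arrays in the Consortium for Functional Glycomics database, restricted to those with a known protein sequence. Scores were averaged over arrays of the same protein sequence at different concentrations or buffers, and over linkers, and negative values can be taken as non-binding.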
# [2] = biological target: Fuc(a1-2)[Gal(a1-3)]Gal(b1-4)GlcNAc
# Outline: as §1
# [3] = biological target: Fuc(a1-2)[Gal(a1-3)]Gal(b1-4)GlcNAc(b1-2)Man(a1-3)[Fuc(a1-2)[Gal(a1-3)]Gal(b1-4)GlcNAc(b1-2)Man(a1-6)]Man(b1-4)GlcNAc(b1-4)GlcNAc
# Outline: as §1
# [4] = biological target: Fuc(a1-2)[Gal(a1-3)]Gal(b1-4)GlcNAc(b1-2)Man(a1-3)[Fuc(a1-2)[Gal(a1-3)]Gal(b1-4)GlcNAc(b1-2)Man(a1-6)]Man(b1-4)GlcNAc(b1-4)[Fuc(a1-6)]GlcNAc
# Outline: as §1
# [5] = biological target: Fuc(a1-2)[Gal(a1-3)]Gal(b1-4)GlcNAc(b1-3)GalNAc
# Outline: as §1
# [6] = biological target: Fuc(a1-2)[Gal(a1-3)]Gal(b1-4)[Fuc(a1-3)]Glc
# Outline: as §1
# [7] = biological target: Fuc(a1-2)[Gal(a1-3)]Gal(b1-4)[Fuc(a1-3)]GlcNAc
# Outline: as §1
# [8] = biological target: Fuc(a1-2)[Gal(a1-3)]Gal(b1-4)[Fuc(a1-3)]GlcNAc(b1-3)GalNAc
# Outline: as §1
# [9] = biological target: Fuc(a1-2)[Gal(a1-4)]Gal(b1-4)GlcNAc
# Outline: as §1
# [10] = biological target: Fuc(a1-2)[GalNAc(a1-3)]Gal
# Outline: as §1
# [11] = biological target: Fuc(a1-2)[GalNAc(a1-3)]Gal(b1-3)GalNAc(a1-3)[Fuc(a1-2)]Gal(b1-4)GlcNAc
# Outline: as §1
# [12] = biological target: Fuc(a1-2)[GalNAc(a1-3)]Gal(b1-3)GlcNAc
# Outline: as §1
# [13] = biological target: Fuc(a1-2)[GalNAc(a1-3)]Gal(b1-3)GlcNAc(b1-2)Man(a1-3)[Fuc(a1-2)[GalNAc(a1-3)]Gal(b1-3)GlcNAc(b1-2)Man(a1-6)]Man(b1-4)GlcNAc(b1-4)GlcNAc
# Outline: as §1
# [14] = biological target: Fuc(a1-2)[GalNAc(a1-3)]Gal(b1-3)GlcNAc(b1-2)Man(a1-3)[Fuc(a1-2)[GalNAc(a1-3)]Gal(b1-3)GlcNAc(b1-2)Man(a1-6)]Man(b1-4)GlcNAc(b1-4)[Fuc(a1-6)]GlcNAc
# Outline: as §1
# [15] = biological target: Fuc(a1-2)[GalNAc(a1-3)]Gal(b1-3)GlcNAc(b1-3)GalNAc
# Outline: as §1
# [16] = biological target: Fuc(a1-2)[GalNAc(a1-3)]Gal(b1-4)Glc
# Outline: as §1
# [17] = biological target: Fuc(a1-2)[GalNAc(a1-3)]Gal(b1-4)GlcNAc
# Outline: as §1
# [18] = biological target: Fuc(a1-2)[GalNAc(a1-3)]Gal(b1-4)GlcNAc(b1-2)Man(a1-3)[Fuc(a1-2)[GalNAc(a1-3)]Gal(b1-4)GlcNAc(b1-2)Man(a1-6)]Man(b1-4)GlcNAc(b1-4)GlcNAc
# Outline: as §1
# [19] = biological target: Fuc(a1-2)[GalNAc(a1-3)]Gal(b1-4)GlcNAc(b1-2)Man(a1-3)[Fuc(a1-2)[GalNAc(a1-3)]Gal(b1-4)GlcNAc(b1-2)Man(a1-6)]Man(b1-4)GlcNAc(b1-4)[Fuc(a1-6)]GlcNAc
# Outline: as §1
# [20] = biological target: Fuc(a1-2)[GalNAc(a1-3)]Gal(b1-4)GlcNAc(b1-3)Gal(b1-4)GlcNAc
# Outline: as §1
# [21] = biological target: Fuc(a1-2)[GalNAc(a1-3)]Gal(b1-4)GlcNAc(b1-3)Gal(b1-4)GlcNAc(b1-3)Gal(b1-4)GlcNAc
# Outline: as §1
# [22] = biological target: Fuc(a1-2)[GalNAc(a1-3)]Gal(b1-4)GlcNAc(b1-3)GalNAc
# Outline: as §1
# [23] = biological target: Fuc(a1-2)[GalNAc(a1-3)]Gal(b1-4)[Fuc(a1-3)]GlcNAc
# Outline: as §1
# [24] = biological target: Fuc(a1-2)[GalNAc(a1-3)]Gal(b1-4)[Fuc(a1-3)]GlcNAc(b1-3)GalNAc
# Outline: as §1
# [25] = biological target: Fuc(a1-2)[GalNAc(a1-4)]Gal(b1-4)GlcNAc
# Outline: as §1
# [26] = biological target: Fuc(a1-2)[GalNAc(b1-3)]Gal
# Outline: as §1
# Fuc(a1-3)GlcNAc = biological target: Fuc(a1-3)GlcNAc
# Outline: as §1
# [27] = biological target: Fuc(a1-3)[Gal(b1-4)]Glc6S
# Outline: as §1
# [28] = biological target: Fuc(a1-3)[Gal(b1-4)]GlcNAc
# Outline: as §1
# [29] = biological target: Fuc(a1-3)[Gal(b1-4)]GlcNAc(b1-2)Man(a1-3)[Fuc(a1-3)[Gal(b1-4)]GlcNAc(b1-2)Man(a1-6)]Man(b1-4)GlcNAc(b1-4)GlcNAc
# Outline: as §1
# [30] = biological target: Fuc(a1-3)[Gal(b1-4)]GlcNAc(b1-2)Man(a1-3)[Fuc(a1-3)[Gal(b1-4)]GlcNAc(b1-2)Man(a1-6)]Man(b1-4)GlcNAc(b1-4)[Fuc(a1-6)]GlcNAc
# Outline: as §1
# [31] = biological target: Fuc(a1-3)[Gal(b1-4)]GlcNAc(b1-3)Gal(b1-3)[Fuc(a1-4)]GlcNAc
# Outline: as §1
# [32] = biological target: Fuc(a1-3)[Gal(b1-4)]GlcNAc(b1-3)GalNAc
# Outline: as §1
# [33] = biological target: Fuc(a1-3)[Gal(b1-4)]GlcNAc(b1-4)Gal(b1-4)[Fuc(a1-3)]GlcNAc
# Outline: as §1
# [34] = biological target: Fuc(a1-3)[Gal(b1-4)]GlcNAc(b1-4)Gal(b1-4)[Fuc(a1-3)]GlcNAc(b1-4)Gal(b1-4)[Fuc(a1-3)]GlcNAc
# Outline: as §1
# [35] = biological target: Fuc(a1-3)[Gal(b1-4)]GlcNAc(b1-6)GalNAc
# Outline: as §1
# [36] = biological target: Fuc(a1-3)[Gal(b1-4)]GlcNAc(b1-6)[Gal(b1-3)GlcNAc(b1-3)]Gal(b1-4)Glc
# Outline: as §1
# [37] = biological target: Fuc(a1-3)[Gal(b1-4)]GlcNAc(b1-6)[Neu5Ac(a2-3)Gal(b1-3)]GalNAc
# Outline: as §1
# [38] = biological target: Fuc(a1-3)[Gal(b1-4)]GlcNAc6S
# Outline: as §1
# [39] = biological target: Fuc(a1-3)[Gal3S(b1-4)]GlcNAc
# Outline: as §1
# [40] = biological target: Fuc(a1-3)[Gal3S(b1-4)]GlcNAc6S
# Outline: as §1
# [41] = biological target: Fuc(a1-3)[GalNAc(b1-4)]GlcNAc
# Outline: as §1
# Fuc(a1-4)GlcNAc = biological target: Fuc(a1-4)GlcNAc
# Outline: as §1
# Fuc(b1-3)GlcNAc = biological target: Fuc(b1-3)GlcNAc
# Outline: as §1
# Gal(a1-2)Gal = biological target: Gal(a1-2)Gal
# Outline: as §1
binder,measurement,setting,value
B1,glycan array binding signal (z-score),[1],-0.297
same,glycan array binding signal (z-score),[2],-0.308
same,glycan array binding signal (z-score),[3],0.048
same,glycan array binding signal (z-score),[4],1.44
same,glycan array binding signal (z-score),[5],-0.277
same,glycan array binding signal (z-score),[6],-0.107
same,glycan array binding signal (z-score),[7],-0.299
same,glycan array binding signal (z-score),[8],-0.122
same,glycan array binding signal (z-score),[9],-0.303
same,glycan array binding signal (z-score),[10],-0.306
same,glycan array binding signal (z-score),[11],-0.276
same,glycan array binding signal (z-score),[12],-0.3
same,glycan array binding signal (z-score),[13],0.427
same,glycan array binding signal (z-score),[14],2.83
same,glycan array binding signal (z-score),[15],-0.06
same,glycan array binding signal (z-score),[16],-0.308
same,glycan array binding signal (z-score),[17],-0.305
same,glycan array binding signal (z-score),[18],0.005
same,glycan array binding signal (z-score),[19],1.56
same,glycan array binding signal (z-score),[20],-0.303
same,glycan array binding signal (z-score),[21],-0.235
same,glycan array binding signal (z-score),[22],-0.184
same,glycan array binding signal (z-score),[23],-0.299
same,glycan array binding signal (z-score),[24],0.522
same,glycan array binding signal (z-score),[25],-0.306
same,glycan array binding signal (z-score),[26],-0.306
same,glycan array binding signal (z-score),Fuc(a1-3)GlcNAc,-0.306
same,glycan array binding signal (z-score),[27],-0.293
same,glycan array binding signal (z-score),[28],-0.303
same,glycan array binding signal (z-score),[29],-0.255
same,glycan array binding signal (z-score),[30],0.111
same,glycan array binding signal (z-score),[31],-0.282
same,glycan array binding signal (z-score),[32],-0.206
same,glycan array binding signal (z-score),[33],0.32
same,glycan array binding signal (z-score),[34],-0.251
same,glycan array binding signal (z-score),[35],0.075
same,glycan array binding signal (z-score),[36],-0.303
same,glycan array binding signal (z-score),[37],-0.066
same,glycan array binding signal (z-score),[38],-0.291
same,glycan array binding signal (z-score),[39],-0.305
same,glycan array binding signal (z-score),[40],-0.215
same,glycan array binding signal (z-score),[41],-0.278
same,glycan array binding signal (z-score),Fuc(a1-4)GlcNAc,-0.308
same,glycan array binding signal (z-score),Fuc(b1-3)GlcNAc,-0.304
same,glycan array binding signal (z-score),Gal(a1-2)Gal,-0.303

# Source: the supplement of paper PMC8728848
